# Laboratory results: PubChem BioAssay AID686979 (National Center for Advancing Translational Sciences (NCATS), 2013)
# The whole screen tested about 420,000 compounds, of which about 50,000 (12%) were called active. Inconclusive results, whose numbers are uncertain, are shown with a selection of clear calls. Calls follow the shape of the dose curve; as a rule, active = well fitted inhibition curve with a large enough effect; inconclusive = small, poorly fitted or top-dose-only effect; inactive = flat fitted curve, though single readings scatter. No potency is given beside an inconclusive call; the fits are too rough.
# Assay: qHTS for Inhibitors of human tyrosyl-DNA phosphodiesterase 1 (TDP1): qHTS in cells in presence of CPT; also: nearly all actives have a fitted effect of over 55% in size
# Settings: chicken DT40 Tdp1-/-;hTDP1 cells + 20 nM CPT, ATP luminescence, 48 h; series mostly up to 46.2 µM
# How it was run: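 Cell growth measured by CellTiter-Glo luminescence after a minimum 48 h, 37 C compound exposure with 20 nM CPT in Tdp1-knockout DT40 cells stably expressing hTDP1, seeded 400/well; qHTS titration format.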
# Potency is read from the fitted curve at half-maximal effect; tags tell the direction and shape of the fitted curve.
row,Compound,Potency
1,Cc1ccccc1Cn1c(=O)n(CC2CCC(C(=O)NCCc3ccccc3)CC2)c(=O)c2ccccc21 (stereo not drawn),active: 20.6 µM
2,Cc1c(-n2c(=O)n(Cc3ccccc3)c(=O)c3[nH]cnc32)cccc1S(C)=O (stereo not drawn),inactive
3,O=C(NC12CC3CC(CC(C3)C1)C2)c1cc2nc(-c3ccco3)cc(C(F)(F)F)n2n1,active: 20.6 µM
4,CCOC(=O)c1sc(NC(=O)c2nc(SC)ncc2Cl)c(C(=O)OCC)c1C,inactive
5,CC[C@H](CO)NCCN[C@H](CC)CO,inactive
6,CCn1c(=O)c(C(=O)CN2CCN(S(=O)(=O)c3ccccc3)CC2)c(N)n(Cc2ccccc2)c1=O,"inconclusive [inhibitor, single point]"
7,COc1cccc(-c2nc(CS(=O)(=O)CC(=O)NCc3ccccc3)c(C)o2)c1,"inconclusive [inhibitor, single point]"
8,COc1ccc(NC(C)=O)cc1NC(=O)CN1CCN(CC(=O)Nc2ccccc2Cl)CC1,"inconclusive [inhibitor, single point]"
9,CC(=O)Oc1ccc(/C=C2/CCc3ccccc3C2=O)cc1,"inconclusive [inhibitor, single point]"
10,Cn1c(=O)[nH]c(=O)c2c1nc(SCC(O)CCl)n2Cc1ccccc1 (stereo not drawn),active: 11.6 µM
11,CCOc1ccccc1NC(=O)CNC(=O)N1CC(=O)Nc2ccccc21,"inconclusive [inhibitor, single point]"
12,CC(=O)c1cccc(-c2ccc3c(c2)C(C)(Cc2ccccc2F)C(=O)N3)c1 (stereo not drawn),active: 25.9 µM
13,Cc1c(NC(=S)N/N=C/c2ccc([N+](=O)[O-])cc2O)c(=O)n(-c2ccccc2)n1C,"inconclusive [inhibitor, partial curve]"
14,COc1ccc(-n2c(-c3ccc(Cl)cc3)cc3c2CC(C)(C)CC3=O)c(OC)c1,active: 23.1 µM
15,COC(=O)[C@]12CCCCC=C1N(Cc1ccc3c(c1)OCO3)C(=O)[C@H](CC(=O)NCc1cccc(C(F)(F)F)c1)C2,"inconclusive [inhibitor, single point]"
16,CC1(C(=O)NS(=O)(=O)c2ccc(C#N)cc2)CCN1C(=O)C1(c2ccccc2)CCCC1 (stereo not drawn),active: 11.6 µM
17,CCOCCOC(=O)c1[nH]c2c(c1C)C(=O)CC(c1ccc(OC)c(OC)c1)C2 (stereo not drawn),"inconclusive [inhibitor, single point]"
18,O=S(=O)(c1ccccc1)c1cnc(-c2cccnc2)nc1-c1ccc(Cl)c(Cl)c1,"inconclusive [inhibitor, single point]"
